Source: PubChem BioAssay AID1159614 (National Center for Advancing Translational Sciences (NCATS), 2016)
Out of some 45,000 compounds screened, about 65 (0.1%) were called active. The call rests on the fitted dose curve; in most records, active means well fitted activation curve with a large enough effect; inconclusive means small, poorly fitted or top-dose-only effect; inactive means no such curve, though single readings can be large or run the other way. This is one part of the list.

Target: Galactocerebrosidase (Homo sapiens) (UniProt P54803)
Experiment: A Novel Cell-Based Assay to Identify Small Molecules for B -Galactocerebrosidase; further: 0% is about no effect; nearly all actives have a fitted effect of over 65% in size
Settings: 145M-Twi-hGALC-G270D cells, HMU-beta-Gal fluorescence, 48 h; series mostly up to 57.5 µM; activation: at the top concentration
In short: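 qHTS, 1536-well; 145M-Twi-hGALC-G270D cells (WT line also made) in DMEM/F12 + 10% FBS; compound incubation on live cells; HMU-β-gal 0.1 mM final, pH 5.2, NaTC; carbonate stop; fluorescence increase = enhanced residual activity.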

UniProt P54803, sequence (P54803 whole entry, looked up): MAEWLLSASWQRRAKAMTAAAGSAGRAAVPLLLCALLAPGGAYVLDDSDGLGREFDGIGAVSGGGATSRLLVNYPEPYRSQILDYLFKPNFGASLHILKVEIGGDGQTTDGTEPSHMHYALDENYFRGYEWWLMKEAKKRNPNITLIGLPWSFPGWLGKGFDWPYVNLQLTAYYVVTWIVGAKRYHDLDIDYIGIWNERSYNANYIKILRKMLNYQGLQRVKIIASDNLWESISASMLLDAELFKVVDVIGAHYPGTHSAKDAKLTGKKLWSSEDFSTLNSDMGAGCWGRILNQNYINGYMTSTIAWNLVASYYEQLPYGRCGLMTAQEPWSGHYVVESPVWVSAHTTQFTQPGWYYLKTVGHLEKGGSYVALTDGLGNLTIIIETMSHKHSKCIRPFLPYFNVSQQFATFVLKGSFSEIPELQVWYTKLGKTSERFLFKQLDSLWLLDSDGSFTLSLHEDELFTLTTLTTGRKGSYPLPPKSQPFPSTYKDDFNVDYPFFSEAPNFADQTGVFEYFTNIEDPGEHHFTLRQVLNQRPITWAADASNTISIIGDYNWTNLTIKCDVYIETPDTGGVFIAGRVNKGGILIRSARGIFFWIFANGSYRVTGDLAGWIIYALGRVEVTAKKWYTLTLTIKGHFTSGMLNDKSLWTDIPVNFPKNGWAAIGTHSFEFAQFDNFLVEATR

activation, inactive:
CCc1ccccc1NC(=O)c1ccc2c(c1)c(C)c(C)n2Cc1ccccc1 -5.04%, COC(=O)c1cc2sccc2n1Cc1nc(-c2ccc(C)cc2)oc1C -22.7%, CN(C(=O)CSc1nc2ccccc2n1CC(=O)N(C)C1CCCCC1)c1ccc(F)cc1 -9.16%, CCCCN(c1ccccc1)c1ncnc2c1cnn2-c1cccc(C)c1 -7.66%, CC(=O)Nc1ccc2nc(SCCOc3ccccc3Cl)sc2c1 -39.3%, CCOC(=O)c1c(C)[nH]c(C)c1S(=O)(=O)N(C)CC(=O)Nc1ccc(C)c(F)c1 -13.1%, CCc1nnc2c3ccccc3nc(N3CCN(c4cc(Cl)ccc4C)CC3)n12 -1.66%, COc1ccc(NC(=O)CCc2c(C)nc3cc(-c4cccc(F)c4)nn3c2C)cc1Cl -13.1%, CCOc1ccc(NC(=O)Cn2c(=O)n(-c3ccccc3)c(=O)c3c4c(sc32)CCCC4)cc1 -2.21%, CCc1ccc(S(=O)(=O)c2cn(Cc3ccc(OC)cc3)c3cc(OC)c(OC)cc3c2=O)cc1 7.03%, O=C(COc1ccc(Br)cc1)Nc1ccc(C(=O)OC2CCCCC2)cc1 -16.3%, Cc1cccc(C(=O)Nc2ccccc2OCc2cc(=O)n3cc(C)ccc3n2)c1 -3.24%, CC(=O)N1CCCc2cc(S(=O)(=O)N3CCCC(C(=O)Nc4ccc(C)c(F)c4)C3)ccc21 (stereo unspecified) -13.6%, COC(=O)c1c(Oc2ccc(Br)cc2)nnc(-c2ccccc2)c1-c1ccccc1 -14.6%, Cc1c(Cl)cccc1NC(=O)Cn1c(=O)n(Cc2ccco2)c(=O)c2oc3ccccc3c21 -8.73%, O=C1CC(c2ccc(Br)cc2)c2c(ccc3ccccc23)N1 (stereo unspecified) -24.5%, Cc1ccc(CN2CCC(CNC(=O)Nc3cccc(C)c3C)C2)cc1 (stereo unspecified) -4.88%, CCc1nc2nc(C)cc(Nc3ccc(F)c(Cl)c3)n2n1 -9.21%, CC(C)n1c(=O)c2oc3ccccc3c2n(CC(=O)Nc2ccccc2Cl)c1=O -4.99%, COc1ccccc1-c1c(C)nn2c(N3CCN(c4ccc(F)cc4)CC3)cc(C)nc12 -12.4%, CCN(CC)CCCNc1oc(-c2ccc(OC)cc2)nc1C#N -11.4%, CN1C(=O)c2ccccc2Sc2ccc(NC(=O)N3CCN(c4cccc(Cl)c4)CC3)cc21 -41.8%, COc1ccc(Cl)cc1NC(=O)CCn1nc(C)cc1C -10.1%, CN(C)c1ccc(C(=O)NCc2ccc3c(c2)CCN3C(=O)c2ccc(Cl)cc2)cc1 -12.2%, Clc1ccc(CNc2ncnc3onc(-c4ccc(Cl)cc4)c23)cc1 -11.3%, COc1ccc(OC)c(CNc2ncnc3onc(C)c23)c1 -10.4%, CCc1cccc(C)c1NC(=O)c1cc(S(=O)(=O)N2CCN(c3ccccc3)CC2)ccc1F -10.8%, CCOC(=O)c1cc2c(=O)n3ccccc3nc2n(C(C)C)c1=NC(=O)c1c(-c2c(F)cccc2Cl)noc1C -14.6%, COc1ccc2c(c1)CC(C(=O)Nc1cc(OC)c(OC)c(OC)c1)CO2 (stereo unspecified) -10.9%, Cc1cccc(CCNC(=O)CCc2c(C)nc3c(c(C)nn3-c3ccccc3)c2C)c1 -17.2%, COc1cc(OC)cc(C(=O)Nc2cccc(-c3cn4ccsc4n3)c2)c1 -0.812%, COc1ccc(C(=O)NCc2ccc3c(c2)CCN3C(=O)c2ccc(Cl)cc2)c(OC)c1 -16.8%, CCC1CCCCN1C(=O)Cn1c(=O)n(-c2ccc(Cl)c(Cl)c2)c(=O)c2c(C)c(C(=O)N(C)C)sc21 (stereo unspecified) -1.66%, CCOc1ccc(NC(=O)CSc2cn(CC(=O)N3CCOCC3)c3ccccc23)cc1 -12.6%, CC(C)OCCCn1c(SCc2ccccc2Cl)nc2c(sc3ccccc32)c1=O 1.51%, CCC(Cc1ccccc1)NC(=O)c1cccc(Nc2nc3ccccc3nc2-n2nc(C)cc2C)c1 (stereo unspecified) -10.1%, CCC1CN(C(=O)N2CCC(C(=O)NCCC3=CCCCC3)CC2)c2ccccc2O1 (stereo unspecified) -17.7%, Cc1ccc(N(CC(=O)N2CCN(c3cccc(C)c3C)CC2)S(=O)(=O)c2c(C)nn(C)c2C)cc1 -36.7%, CCN(c1cc(C)cc(C)c1)S(=O)(=O)c1nnc(NC(=O)c2ccccc2C)s1 -15.3%, CC(=O)Nc1c(C)nn(-c2ccccc2)c1N1CCC(C(=O)NCc2cccc(F)c2)CC1 -14.3%, Cc1c(Cl)cccc1Nc1ccccc1C(=O)O -22.9%, COc1ccc(CCNC(=O)c2cc(=O)[nH]c3ccc(S(=O)(=O)N4CCCCC4)cc23)cc1OC -1.14%, CCOc1ccc(NC(=O)C2CCC(CNS(=O)(=O)c3ccc4c(c3)CCCC(=O)N4)CC2)cc1 (stereo unspecified) -7.31%, CCOc1ccc(NC(=O)N2CCN(C(=O)c3nsc4ccccc34)CC2)cc1 -11.9%, Cc1cccc(NC(=O)c2ccc(Cn3nc(N4CCN(c5ccccc5)CC4)ccc3=O)o2)c1C 2.62%, Cn1nc(C(=O)NCc2ccccc2Cl)c2c1-c1ccccc1SC2 -10.1%, CCN(CC)c1nn2c(=O)c(C(=O)NCc3ccccc3Br)cnc2s1 -13%, COc1ccc(CCNC(=O)c2ccc3c(c2)CCN3S(=O)(=O)c2ccc(C)cc2)cc1OC -12.9%, COc1ccc(-c2cc(C(F)(F)F)nc(SCC(=O)N(C)Cc3ccccc3)n2)cc1 -5%, O=S(=O)(c1ccc2nc(Nc3ccc(Br)cc3F)ccc2c1)N1CCCCC1 -2.92%, CCSc1nc2sc3c(c2c(=O)n1-c1ccc(C)c(Cl)c1)CCN(C(C)=O)C3 -2.07%, O=C(COc1ccccc1Cl)Nc1ccc2nc(SCC(=O)N3CCOCC3)sc2c1 -7.11%, Cc1ccc(NC(=O)CSc2nccn2-c2ccccc2)cc1 -7.76%, COC(=O)c1ccc2c(c1)N(CC(=O)Nc1ccc(C)cc1Cl)C(=O)c1ccccc1S2 -12%, COc1ccc(C)cc1NC(=O)CN(C)S(=O)(=O)c1ccc2[nH]c(=O)oc2c1 -12.8%, CCc1nccn1S(=O)(=O)c1cc(Br)ccc1Br -5.8%, COC(=O)c1sccc1S(=O)(=O)N(CC(=O)Nc1cc(F)ccc1F)c1ccc(C)c(C)c1 -14%, CCc1ccc(-c2[nH]nc3nc(-c4cc(OC)ccc4OC)cc(C(=O)O)c23)cc1 -8.41%, Cc1cc(=O)n(Cc2ccc(Br)cc2F)c2c1c(C)nn2-c1ccccc1 3.43%, Cc1ccc(NC(=O)Cn2c(=O)n(CCCCC(=O)NCCc3ccccc3)c(=O)c3ccccc32)cc1 -2.48%, Cc1ccccc1Cn1cc(S(=O)(=O)c2ccc(F)cc2)c(=O)c2cc3c(cc21)OCO3 -12.1%, Cc1cc(Cl)ccc1OCCSc1nnc(-c2cccs2)o1 -10.7%, O=C(CCNS(=O)(=O)c1ccc2c(c1)CCCC(=O)N2)NCc1ccc(Cl)cc1 -26.6%, COCCOC(=O)c1c(C)oc2c1cc(NS(=O)(=O)c1ccc(Cl)c(C)c1)c1ccccc12 -18.3%, Cc1c(-c2cccc(NC(=O)c3ccc(F)c(F)c3)c2)nc2ncccn12 -3.52%, Cc1nn(C)c2c1c(C(F)(F)F)cc(=O)n2C(C)C(=O)NCCc1ccc(Cl)cc1 (stereo unspecified) -26.7%, CCOC(=O)Cc1ccc(NC(=O)n2ncc3cc(Cl)ccc32)cc1 -5.9%, CCOC(=O)c1cnc2c(Cl)c(Cl)ccc2c1NCCN1CCOCC1 -10.6%, CNS(=O)(=O)c1ccc(NC(=O)c2cnn3c(C(F)F)cc(-c4ccccc4)nc23)cc1 -9.7%, N#Cc1ccc(C(=O)Nc2ccccc2-c2nc3ccccc3s2)c(F)c1 6.54%, Cc1ccc(Oc2coc3cc(OCC(=O)NC4CCCCC4)ccc3c2=O)cc1 -2.05%, COc1ccc(OCc2ccc(-c3nc(C#N)c(NCc4ccccc4)o3)o2)cc1 -12.9%, O=C(NCC(c1ccc2c(c1)OCO2)N1CCN(c2ccc(F)cc2)CC1)c1cccc([N+](=O)[O-])c1 (stereo unspecified) -40.7%, c1ccc(C(O[C@H]2CCCN(CCc3ccc4c(c3)OCO4)C2)c2ccccc2)cc1 -8.54%, Cc1ccc2onc(CNC(=O)Nc3ccccc3C#N)c2c1 -18.7%, CCc1ccc(NC(=O)C2CCCN(c3nn4cc(-c5ccc(OC)cc5)nc4s3)C2)cc1 (stereo unspecified) -6.05%, CCOc1ccc(C2C(C(=O)OC)=C(C)NC3=C2C(=O)c2ccccc23)cc1OC (stereo unspecified) -27.8%, CN(C1CCCCC1)S(=O)(=O)c1ccc2c(c1)c(=O)c(C(=O)NCc1ccccc1Cl)cn2C -13.8%, O=C(Nc1ccc(F)cc1Cl)C1CCN(c2ncnc3c2nc2n3CCCCC2)CC1 -18.9%, COc1ccc(Nc2ncnc3c2c(-c2ccccc2)cn3-c2ccc(C)c(Cl)c2)cc1OC -6.35%, COc1cccc(CNC(=O)CCc2c(C)nc3c(c2C)c(=O)n(C)c(=O)n3C)c1 -6.37%, CCc1ccccc1NC(=O)CSc1ncccc1C(=O)O -10.6%, Cc1ccc(-n2c3c(c(=O)[nH]c2=O)C(NS(=O)(=O)c2ccc(C)cc2)(C(F)(F)F)C(=O)N3)cc1 (stereo unspecified) -7.22%, COc1ccc2[nH]cc(CCNC(=O)Nc3cccc(F)c3)c2c1 -2.85%, CCOc1ccc(CN2C(=O)c3ccccc3Sc3ccc(C(=O)NCCc4ccccc4)cc32)cc1 -7.66%, CC(=O)c1ccc(NS(=O)(=O)c2cnc(N)nc2)cc1 10%, Cc1cccc(NC(=O)CSC2=Nc3ccccc3C3=NC(CCC(=O)NCc4ccc(F)cc4)C(=O)N23)c1 (stereo unspecified) -13.5%, CCOc1ccccc1NC(=O)Cc1csc(COc2cccc(C)c2)n1 -13.7%, CC(=O)c1cccc(Nc2ncnc3c2cnn3C)c1 2.54%, O=C(NCCc1ccc(Cl)cc1)c1ccc(Cn2c(=O)[nH]c3ccccc3c2=O)cc1 -26.4%, CCOc1ccccc1NC(=O)c1cc2cc(C)ccc2n1C -16.5%, COC(=O)c1c(NC(=O)COc2c(C)cccc2C)sc2c1CCCC2 -11.7%, CC1CCN(S(=O)(=O)c2ccc(C(=O)Nc3nc4ccc(F)cc4s3)cc2)CC1 -9.16%, COc1ccccc1NC(=O)C1=C(C)Nc2nc(-c3ccco3)nn2C1c1ccccc1 (stereo unspecified) -14.5%, Cc1ccccc1NC(=O)c1c(NC(=O)c2ccncc2)sc2c1CCC(C(C)(C)C)C2 (stereo unspecified) -19.6%, CCc1ccc(NC(=O)C2CCC(CNS(=O)(=O)c3cccs3)CC2)cc1 (stereo unspecified) -3.28%
